In US20200199244A1 (published 2020):
Values belong to the binder of their own block, whether it stands above or below them.

Biological target: human CD40 (human, UniProt P25942 21-277)
Experiment: cell-based or functional assay

UniProt P25942, sequence (P25942 21-277 limits assumed): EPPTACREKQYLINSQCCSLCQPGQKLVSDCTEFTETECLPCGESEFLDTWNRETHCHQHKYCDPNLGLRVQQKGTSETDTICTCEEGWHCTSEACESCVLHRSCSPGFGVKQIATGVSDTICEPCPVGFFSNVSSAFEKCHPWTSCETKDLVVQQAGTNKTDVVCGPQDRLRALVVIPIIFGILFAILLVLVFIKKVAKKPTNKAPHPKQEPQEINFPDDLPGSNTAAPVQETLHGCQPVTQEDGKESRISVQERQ

CHO-hCD40L-driven DC Activation IL-6 EC50: 150 pM | CHO-hCD40L-driven DC Activation IL-12 EC50: 140 pM | CHO-hCD40L-driven DC Activation TNF EC50: 270 pM | CHO-hCD40L-driven Human B Cell Proliferation EC50: 250 pM | T-B cell MLR EC50: 530 pM | hIZCD40L-driven Human B Cell Proliferation EC50: 25 pM
B1: BMS3h-56-269-IgG1*Fc fusion polypeptide (Fc fusion)
chain: EVQLLESGGGLVQPGGSLRLSCAASGFTFRDYEMWWVRQAPGKGLERVSAINPQGTRTYYADSVKGRFTISRDNSKNTLYLQMNSLRAEDTAVYYCAKLPFRFSDRGQGTLVTVSSAST[human IgG1 Fc with changes not given here]

CHO-hCD40L-driven DC Activation IL-6 EC50: 90 pM | CHO-hCD40L-driven DC Activation IL-12 EC50: 92 pM | CHO-hCD40L-driven DC Activation TNF EC50: 160 pM | CHO-hCD40L-driven Human B Cell Proliferation EC50: 270 pM | T-B cell MLR EC50: 520 pM | hIZCD40L-driven Human B Cell Proliferation EC50: 28 pM
B2: BMS3h-56-269-IgG4 Fc fusion polypeptide (Fc fusion)
chain: EVQLLESGGGLVQPGGSLRLSCAASGFTFRDYEMWWVRQAPGKGLERVSAINPQGTRTYYADSVKGRFTISRDNSKNTLYLQMNSLRAEDTAVYYCAKLPFRFSDRGQGTLVTVSSAST[human IgG4 Fc with S228P (EU numbers) not given here]
